In the RNAGym collection of RNA variant scans (doi:10.1073/pnas.2313332121):
This sample is rich in variants without activity.

B1: TPR 5TU (parent)
chain: GGAUCUUCUCGAUCUAACAAAAAAGACAAAUCUGCCACAAAGCUUGAGAGCAUCUUCGGAUGCAGAGGCGGCAGCCUUCGGUGGCGCGAUAGCGCCAACGUUCUCAACUAUGACACGCAAAACGCGUGCUCCGUUGAAUGGAGUUUAUCAUG

Variants of: B1
Assay: polymerase ribozyme fitness, log enrichment relative to wild type (log ratio); higher = more active; in vitro selection for triplet polymerase activity
In short: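 Both subunits of a heterodimeric triplet polymerase ribozyme were given their own mutant library, built by PCR and transcribed. Each library was annealed with a biotinylated primer, the partner subunit and triplets, incubated frozen at −7 °C, and its extended constructs gel-excised, captured on streptavidin beads and amplified by RT-PCR, all in one round done in triplicate. Fitness is the logarithm of genotype enrichment relative to wild-type enrichment, with replicates averaged by inverse-variance weighting. That logarithm is base 2, and Illumina-sequenced genotypes needed ≥10 input reads and ≥1 read per output.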

Polymerase ribozyme fitness (log ratio), -3.88:
A23U C114U

Polymerase ribozyme fitness (log ratio), ≤ -4.2:
A23U A47C C76U C87A A107C G136A U145G
A23U A52C U55A G81U G84A C99A U127C U145G
A23U A64C G68C
A23U A64U G88C C93U C125U
A23U A66C G80U G133C G140A
A23U A73G C96G U151G
A23U A91G
A23U A150G
A23U C32U A47U G67C G83U U148C
A23U C32U A52C C72U U82G C129A
A23U C35A G65A G83C U90A C103U A150C
A23U C35U C93G U101G A138G
A23U C36A U55A G58C G62C G88A U139G
A23U C38G C75A C79U U82G C93A
A23U C43U U53A U55A A106G G124U C129G
A23U C51G C75A C85G
A23U C54A G83U U102G
A23U C54U A60G C96U G124A C125U G143U
A23U C54U G92C
A23U C76A C99A U134G
A23U C76U C87A A89C G94A U101A
A23U C79A G86A U102A
A23U C85U U102A A107U U130G U135G A138C
A23U C87G A91U A98U
A23U C87G C95U U109A A115C C118G A138C
A23U C87U A121U C125A G143U
A23U C93U G126U
A23U C105A A122C G124U
A23U G25C C35A C43U G80A C95U U104G G128A U144G
A23U G25U A29U C43U G58U G86A A107G
A23U G34U U44A C114A G136C
A23U G42U A66C C72A C99U C123U
A23U G42U C75G G80C
A23U G48A A97U
A23U G50C C76A G84A U90G C129A A137G
A23U G58C A64C C69G C85U A110U U134G
A23U G62U A121U
A23U G68C C76G G80C A89U U148G
A23U G70U C72G G140C
A23U G74U U82G
A23U G86U A89G C105G C129U
A23U U31C C93G C129G U134G U148G
A23U U33G A52U C85U G94U A98U C116U
A23U U53A C96A C114G G143A U146G
A23U U55A G128U
A23U U55A U77C C108U
A23U U56A C57U G83U A89U
A23U U82C
A23U U134A G136A G143U A150G
A24C A26U G70C G140U
A24C A28C A49U A60G C75A C96A
A24C A29C G68U C96G
A24C A29C U44G G80A A89G C118G
A24C A29C U55G G94C
A24C A29U U78A C93G C132U G152U
A24C A30C C35U G68A C87U C125A G136A
A24C A30C G65C G71A G80C U82A C95U
A24C A30U C43A C57U C87G
A24C A41U G86C C87G G88A A150C
A24C A47U G50A U56A C75U G100C C116A A121U A150G
A24C A91U G100U
A24C A107U U134C U146C
A24C C27G A30G U31A A73C C85G
A24C C27G U33G C38U A47U U82A G128U
A24C C32U A49C C85G G86A A91G C123G C132A
A24C C35A A37C U56A G88U
A24C C35U A138U
A24C C36A G86A
A24C C43U G50C A91C C105U C123A
A24C C54U G86A C87G C123U U130C G143C
A24C C76U C87A C95U
A24C C85A
A24C C85A G143C U146A
A24C C85U A120C U146A
A24C C87G
A24C C93U C114U A119G
A24C C118U C125U
A24C G25U A52G C85A G141C
A24C G34A A60G C85G G136A
A24C G34C G50C U134A

Polymerase ribozyme fitness (log ratio), -3.32:
A23U G84A

Polymerase ribozyme fitness (log ratio), -3.85:
A23U U55A
